{"source": "PubChem BioAssay (NCATS)", "key": {"[1]": {"target": "Tyrosine-protein phosphatase non-receptor type substrate 1 (Homo sapiens) + Leukocyte surface antigen CD47 (Homo sapiens) (UniProt P78324+Q08722)", "sequence (P78324 whole entry, looked up)": "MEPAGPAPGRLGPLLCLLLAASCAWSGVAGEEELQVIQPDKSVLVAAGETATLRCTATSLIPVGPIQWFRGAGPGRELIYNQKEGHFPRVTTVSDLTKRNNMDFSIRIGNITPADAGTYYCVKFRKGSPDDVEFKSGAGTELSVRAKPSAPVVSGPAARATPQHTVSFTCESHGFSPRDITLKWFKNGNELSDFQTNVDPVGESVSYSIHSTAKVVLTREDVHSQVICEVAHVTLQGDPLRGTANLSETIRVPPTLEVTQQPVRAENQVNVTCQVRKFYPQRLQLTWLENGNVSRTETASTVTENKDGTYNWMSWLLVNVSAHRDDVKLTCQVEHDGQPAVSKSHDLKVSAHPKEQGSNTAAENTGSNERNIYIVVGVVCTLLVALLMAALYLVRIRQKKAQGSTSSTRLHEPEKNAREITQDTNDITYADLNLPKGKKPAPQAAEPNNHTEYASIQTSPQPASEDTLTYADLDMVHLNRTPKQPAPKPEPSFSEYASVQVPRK", "sequence (Q08722 whole entry, looked up)": "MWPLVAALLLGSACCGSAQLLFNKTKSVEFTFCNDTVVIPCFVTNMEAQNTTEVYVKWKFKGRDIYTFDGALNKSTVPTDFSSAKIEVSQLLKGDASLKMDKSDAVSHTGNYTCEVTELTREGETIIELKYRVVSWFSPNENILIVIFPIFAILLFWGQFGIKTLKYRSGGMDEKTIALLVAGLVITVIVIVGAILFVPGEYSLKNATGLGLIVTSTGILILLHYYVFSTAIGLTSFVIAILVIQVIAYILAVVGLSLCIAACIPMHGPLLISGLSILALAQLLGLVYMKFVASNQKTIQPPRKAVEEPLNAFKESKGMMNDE", "assay": "CD47-SIRPalpha protein protein interaction - HTRF assay qHTS validation (AID 1347058; active means well fitted curve in the direction sought with a large enough effect in the signal ratio, not every such curve was filed as active; inconclusive means small, poorly fitted or top-dose-only effect, or effect the other way, or a change in a side signal; inactive means no such curve, though single readings can be large or run the other way; the % refers to the signal ratio; further: potency means the concentration at half of the fitted maximal effect)", "summary_of_the_method": "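Soluble extracellular domains (6His-CD47, Avi-tag-biotinylated SIRPalpha) in PBS pH 7.4 with 0.05% IGEPAL CA-630. Compounds were preincubated 30 min at RT with CD47 and anti-His-Eu, then SIRPalpha and SAV-XL665 were added. TR-FRET 665/615 ratio.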"}, "[2]": {"assay": "qHTS of pediatric cancer cell lines to identify multiple opportunities for drug repurposing: Primary screen for TC32 cells (AID 1347089); further: potency means the concentration at half of the fitted maximal effect; nearly all actives have a fitted effect of over 60% in size", "summary_of_the_method": "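Measured quantity: luminescence from CellTiter-Glo, reflecting metabolically active TC32 cells following 48 h of compound. Curves came straight from multi-point titrations, with 8 or 11 points in primary and 11 in confirmatory screening.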"}, "[3]": {"assay": "qHTS of pediatric cancer cell lines to identify multiple opportunities for drug repurposing: Primary screen for DAOY cells (AID 1347090); further: potency means the concentration at half of the fitted maximal effect; nearly all actives have a fitted effect of over 55% in size", "details": "DAOY medulloblastoma viability, CellTiter-Glo luminescence, 48 h; activity change, negative = cytotoxic: at 46 µM (top of the series)", "summary_of_the_method": "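Viability measured as metabolically active cells via CellTiter-Glo luminescence following 48 hours of compound exposure, 11-point dilutions in confirmatory testing. 500-1,000 cells/well plated 5 hours before dosing; controls were DMSO and 2.3 µM bortezomib.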"}, "[4]": {"assay": "qHTS of pediatric cancer cell lines to identify multiple opportunities for drug repurposing: Primary screen for BT-37 cells (AID 1347094); further: potency means the concentration at half of the fitted maximal effect", "summary_of_the_method": "(§1)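 Viability was measured as metabolically active cells after 48 hours of treatment, read by CellTiter-Glo luminescence. Compounds were tested at multiple final concentrations, giving concentration-response curves.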"}, "[5]": {"assay": "qHTS of pediatric cancer cell lines to identify multiple opportunities for drug repurposing: Primary screen for NB-EBc1 cells (AID 1347095)", "summary_of_the_method": "as §1"}, "[6]": {"assay": "qHTS of pediatric cancer cell lines to identify multiple opportunities for drug repurposing: Primary screen for SK-N-SH cells (AID 1347098)", "summary_of_the_method": "(§2)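 Cells (500-1,000/well) rested 5 h, then received compounds for 48 h; metabolically active cells were measured by CellTiter-Glo luminescence. Final concentrations spanned up to 46 µM (MIPE, 11-point) or 0.59 nM-46 µM (NPC, 8-point) in primary screens, 11-point in follow-ups.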"}, "[7]": {"assay": "qHTS of pediatric cancer cell lines to identify multiple opportunities for drug repurposing: Primary screen for NB1643 cells (AID 1347099)", "summary_of_the_method": "as §1"}, "[8]": {"assay": "qHTS of pediatric cancer cell lines to identify multiple opportunities for drug repurposing: Primary screen for LAN-5 cells (AID 1347100)", "summary_of_the_method": "(§3)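 Viability after 48 h compound treatment at 37C, 500-1,000 cells/well, read as ATP luminescence with CellTiter-Glo. Primary screens used 11-point (MIPE, 0.78 nM-46 µM) or 8-point (NPC, 0.59 nM-46 µM) final concentrations; follow-up screens used 11-point dilutions.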"}, "[9]": {"assay": "qHTS of pediatric cancer cell lines to identify multiple opportunities for drug repurposing: Primary screen for BT-12 cells (AID 1347101)", "summary_of_the_method": "as §2"}, "[10]": {"assay": "qHTS of pediatric cancer cell lines to identify multiple opportunities for drug repurposing: Primary screen for RD cells (AID 1347104)", "details": "RD rhabdomyosarcoma viability, CellTiter-Glo luminescence, 48 h; activity change, negative = cytotoxic: at 46 µM (top of the series)", "summary_of_the_method": "as §1"}, "[11]": {"assay": "qHTS of pediatric cancer cell lines to identify multiple opportunities for drug repurposing: Primary screen for control Hh wild type fibroblast cells (AID 1347106)", "summary_of_the_method": "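Cells (500-1,000/well) in growth media were settled 5 h at 37 degrees C, then given compounds for 48 h. Viability was read as CellTiter-Glo luminescence. Primary runs used MIPE at 11 points (0.78 nM-46 µM) and NPC at 8 points (0.59 nM-46 µM); follow-ups used 11 points.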"}, "[12]": {"assay": "qHTS of pediatric cancer cell lines to identify multiple opportunities for drug repurposing: Primary screen for Rh30 cells (AID 1347107)", "summary_of_the_method": "as §3"}, "[13]": {"assay": "qHTS of pediatric cancer cell lines to identify multiple opportunities for drug repurposing: Primary screen for Rh41 cells (AID 1347108)", "summary_of_the_method": "as §1"}, "[14]": {"target": "N-terminal Xaa-Pro-Lys N-methyltransferase 1 (Homo sapiens) (UniProt Q9BV86)", "sequence (Q9BV86 whole entry, looked up)": "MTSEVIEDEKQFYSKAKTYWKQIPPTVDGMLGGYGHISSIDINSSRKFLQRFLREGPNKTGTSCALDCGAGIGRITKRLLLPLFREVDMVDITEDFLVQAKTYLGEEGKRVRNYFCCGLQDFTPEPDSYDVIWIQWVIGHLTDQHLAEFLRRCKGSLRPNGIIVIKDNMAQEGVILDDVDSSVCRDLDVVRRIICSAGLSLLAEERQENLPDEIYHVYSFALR", "assay": "qHTS Assay for Inhibitors of N-terminal methyltransferase 1 (NTMT1): LOPAC validation of the NTMT1 SAHH-coupled ThioGlo3 Assay (AID 1347143)", "summary_of_the_method": "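Steps: dispense 125nM NTMT1; pin-transfer test compounds at several concentrations, with 1uM RCC1-6 peptide as control; incubate 1 min; start with reagent holding 100uM SAM, 10uM SAHH, 15uM ThioGlo3; read at 0 and 30 min.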"}, "[15]": {"system": "Zika virus NS2B-NS3 protease (unlinked)", "assay": "Optimization of GU AMC qHTS for Zika virus inhibitors: Unlinked NS2B-NS3 protease assay (AID 1347151)", "summary_of_the_method": "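Percent inhibition is derived from the 15-min change in AMC fluorescence, normalized against no-inhibitor and no-enzyme controls, then fitted to a 4-parameter Hill curve. Aprotinin was the intraplate control.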"}, "[16]": {"system": "Zika virus NS2B-NS3 protease (unlinked complex)", "assay": "Confirmatory screen GU AMC qHTS for Zika virus inhibitors (AID 1347153)", "summary_of_the_method": "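Compounds were preincubated 15 min at room temperature with 25 nM noncovalent NS2B-NS3 protease at pH 8.0; AMC substrate added at 10 microM and 15-min fluorescence gain (340/450 nm) converted to percent inhibition, fitted 4-parameter.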"}, "[17]": {"system": "Zika virus NS2B-NS3 protease", "assay": "Primary screen GU AMC qHTS for Zika virus inhibitors (AID 1347154)", "summary_of_the_method": "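Unlinked Zika NS2B hydrophilic domain–NS3 protease complex at 25 nM in 10 mM Tris-HCl pH 8.0, 0.01% Tween 20, with an AMC peptide substrate. Fluorescence change (340/450 nm) over 15 min at room temperature, normalized to controls, fitted to 4-parameter Hill.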"}, "[18]": {"assay": "Confirmatory screen NINDS Rhodamine qHTS for Zika virus inhibitors (AID 1347161)", "summary_of_the_method": "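Single-chain NS2B-NS3 protease, 25 nM, pH 8.0; compounds preincubated 15 min. Activity: Rhodamine110 release from 1.5 microM substrate over 15 min, room temperature, data fitted to 4-parameter Hill.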"}, "[19]": {"assay": "Vero cells viability qHTS for Zika virus inhibitors (AID 1347167)", "summary_of_the_method": "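qHTS titration; 24-48 h compound exposure, 37 degrees C/5% CO2; DMEM, 4% FBS; CellTiter Glo ATP luminescence.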"}, "[20]": {"assay": "Confirmatory qHTS for small molecule stabilizers of the endoplasmic reticulum resident proteome: Secreted ER Calcium Modulated Protein (SERCaMP) assay (AID 1508628)", "summary_of_the_method": "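GLuc-SERCaMP-expressing SH-SY5Y cells, pretreated 16 h with compound, are challenged with thapsigargin to empty ER calcium stores; after 4 h, coelenterazine is added directly to the medium and luminescence is imaged.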"}, "[21]": {"assay": "Cell Viability qHTS for small molecule stabilizers of the endoplasmic reticulum resident proteome (AID 1508629)", "details": "cell viability counter-screen, 100 nM thapsigargin for final 4 h"}}, "note": "Inconclusive results, whose numbers are uncertain, are shown with a selection of clear calls. For part of these data: No potency is given beside an inconclusive call; the fits are too rough. For part of these data: A note “side channel” means that the fit belongs to a control or component signal, not to the main read-out. Activity calls are given as the source filed them. Unless noted, the call rests on the fitted dose curve; in most records, active means well fitted curve in the direction sought with a large enough effect; inconclusive means small, poorly fitted or top-dose-only effect, or another doubt; inactive means no such curve, though single readings can be large; an effect the other way counts as inactive or inconclusive. Tags describe the fitted curve by direction and shape."}
{"smiles": "NC1[C@H]2CN(c3nc4c(cc3F)c(=O)c(C(=O)O)cn4-c3ccc(F)cc3F)C[C@@H]12", "note": "(stereo partly specified)", "values": [{"measurement": "Potency", "setting": "[1]", "value": "inconclusive [side channel, falling, partial curve]"}, {"measurement": "Potency", "setting": "[2]", "value": "inconclusive [cytotoxic, single point]"}, {"measurement": "Potency", "setting": "[3]", "value": "inconclusive [cytotoxic, partial curve, poor fit]"}, {"measurement": "Potency", "setting": "[4]", "value": "inconclusive [cytotoxic, partial curve]"}, {"measurement": "Potency", "setting": "[5]", "value": "inactive"}, {"measurement": "Potency", "setting": "[6]", "value": "inconclusive [cytotoxic, single point]"}, {"measurement": "Potency", "setting": "[7]", "value": "inconclusive [cytotoxic, single point]"}, {"measurement": "Potency", "setting": "[8]", "value": "inconclusive [cytotoxic, single point]"}, {"measurement": "Potency", "setting": "[9]", "value": "inconclusive [cytotoxic, partial curve]"}, {"measurement": "Potency", "setting": "[10]", "value": "inconclusive [cytotoxic, partial curve, poor fit]"}, {"measurement": "Potency", "setting": "[11]", "value": "inconclusive [cytotoxic, partial curve, poor fit]"}, {"measurement": "Potency", "setting": "[12]", "value": "inactive"}, {"measurement": "Potency", "setting": "[13]", "value": "inconclusive [cytotoxic, single point]"}, {"measurement": "Potency", "setting": "[14]", "value": "active: 50.1 µM"}, {"measurement": "Potency", "setting": "[15]", "value": "active: 23.8 µM"}, {"measurement": "Potency", "setting": "[16]", "value": "inactive"}, {"measurement": "Potency", "setting": "[17]", "value": "inactive"}, {"measurement": "Potency", "setting": "[18]", "value": "inconclusive [inhibitor, partial curve, poor fit]"}, {"measurement": "Potency", "setting": "[19]", "value": "inactive"}, {"measurement": "Potency", "setting": "[20]", "value": "inconclusive [inhibitor, full curve, poor fit]"}, {"measurement": "Potency", "setting": "[21]", "value": "inconclusive [cytotoxic, partial curve, poor fit]"}]}
